# Measured values as given in PubChem BioAssay AID485344 (National Center for Advancing Translational Sciences (NCATS), 2010).
# Among all 340,000 compounds or so, about 6,900 (2%) were called active. No stated cut-off is given here; in the data, active means inhibition above about 30%; inactive means below that, where a call was filed. The entries are a selection whose mix differs from that of the whole data set. Entries without a call were filed so in the source.
# Biological target: D(2) dopamine receptor (Homo sapiens) (UniProt P14416)
# Sequence of UniProt P14416 (P14416 whole entry, looked up): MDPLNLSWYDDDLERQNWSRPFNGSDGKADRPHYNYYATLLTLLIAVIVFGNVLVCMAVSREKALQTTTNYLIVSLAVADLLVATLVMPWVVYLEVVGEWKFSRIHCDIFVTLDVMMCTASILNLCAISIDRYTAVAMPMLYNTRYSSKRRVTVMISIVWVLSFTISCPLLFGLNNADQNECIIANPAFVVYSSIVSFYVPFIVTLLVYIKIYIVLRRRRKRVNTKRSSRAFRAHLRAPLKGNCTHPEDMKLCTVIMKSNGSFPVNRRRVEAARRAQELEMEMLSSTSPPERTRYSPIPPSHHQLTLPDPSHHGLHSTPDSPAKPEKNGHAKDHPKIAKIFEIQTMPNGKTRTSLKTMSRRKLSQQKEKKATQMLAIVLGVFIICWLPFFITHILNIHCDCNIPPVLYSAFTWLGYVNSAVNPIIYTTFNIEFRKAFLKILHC
# Assay: HTS Assay for Allosteric Antagonists of the Human D2 Dopamine Receptor: Primary Screen for Antagonists; further: 0% is about no effect
# Details: HEK293 TREx D2 cells, calcium flux, dopamine EC80; at 10 µM; stronger effect = higher value
# In short: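 Calcium mobilization kinetics were recorded at 1 s intervals in tetracycline-induced HEK293 T-REx D2 cells, first for 180 s after compound addition and then 180 s after EC80 dopamine.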
row,SMILES,inhibition
1,COc1ccc(Nc2nc(-c3ccccc3)c3cc(Br)ccc3n2)cc1,-1.16%
2,CC(C)Oc1ccc(CNC(=O)c2ccc3c(c2)N(Cc2ccc(F)cc2)CCS3)cc1,17.8%
3,Clc1ccccc1CNc1nc2ccccc2c2nc(-c3ccccc3)nn12,5.91%
4,O=C(C1CCCCC1)N(Cc1cccnc1)c1nc2c(F)cccc2s1,18%
5,CC(C)(CC(=O)O)Cc1nc(-c2ccc(Cl)cc2)no1,active: 43.6%
6,COc1cc(C(=O)NC(=S)Nc2ccccc2N2CCCC2)cc(OC)c1OC,active: 43.5%
7,CCN(CC)CCNC(=O)c1sc2nc(C)cc(C)c2c1-n1cccc1,-4.8%
8,Cc1ccc2onc(CNC(=O)N(C)Cc3ccccc3)c2c1,-7.06%
9,COc1ccc(NC(=O)Cn2ccn(Cc3ccccc3)c(=O)c2=O)cc1Cl,-11.1%
10,CCOC(=O)c1ccc(NC(=O)c2cccc3c(=O)c4c([nH]c23)CCCC4)cc1,13.8%
11,CCc1ccccc1NC(=O)Cn1c(C(=O)OC)cc2oc(C)cc21,10.9%
12,O=C1c2[nH]nc(-c3ccccc3O)c2C(c2cccc(Br)c2)N1Cc1ccncc1 (configuration not stated),14.4%
13,CN(C(=O)CSc1cn(CC(=O)N2CCCC2)c2ccccc12)c1ccccc1,1.37%
14,C=CCNc1nc(SC)nc2ccsc12,active: 31.9%
15,CCC(=O)Nc1cc(-c2nc3cc(C)cc(C)c3o2)ccc1C,10.2%
16,Cc1ccc(CSCCNC(=O)CSCc2ccc([N+](=O)[O-])cc2)cc1,active: 31.7%
17,CCCCOc1ccc(S(=O)(=O)Nc2ccc(-c3ccc(N4CCCCC4)nn3)cc2)cc1,26%
18,CCn1cc(C(=O)N2CCN(Cc3ccc4c(c3)OCO4)CC2)c2cc(OC)c(OC)cc2c1=O,active: 32.8%
19,Cc1cc(Br)ccc1OCCOCCN1CCCC1,active: 43.1%
20,Cc1ccccc1OCC(=O)NCC(c1ccc(Cl)cc1)N1CCOCC1 (configuration not stated),11.3%
21,Cc1c(C(=O)N(C)c2ccccc2)sc2nc(-c3ccc(F)cc3)cn12,6.32%
22,Cc1cc(C)cc(NC(c2cccc(Cl)c2)c2nnc(-c3ccccc3)o2)c1 (configuration not stated),19.7%
23,O=C(Nc1cccc2cccnc12)c1cccc2c(Br)cccc12,13.2%
24,O=C1c2oc3ccccc3c(=O)c2C(c2ccccc2F)N1Cc1ccc2c(c1)OCO2 (configuration not stated),-9.68%
25,CCc1cc2c(cc3c(=O)n(CC(=O)NC4CCC(C)CC4)nc(CC)n32)s1 (configuration not stated),3.15%

row,SMILES,inhibition
1,COc1cccc(-c2n[nH]c3c2C(c2cccc(O)c2)N(C)C3=O)c1 (configuration not stated),-9.56%
2,Cc1onc(-c2ccccc2)c1C(=O)NNC(=S)NC(=O)c1ccc(Br)cc1,active: 35.6%
3,CCS(=O)(=O)N1CC(=O)N(c2cccc(C)c2C)C(C)(C(=O)NC2CCCCCC2)C1 (configuration not stated),-19.2%
4,COc1ccc(CNC(=O)c2cnn(-c3ccc(OC)cc3)c2C2CCN(C(=O)OC(C)(C)C)CC2)cc1,-1.05%
5,O=C(COC(=O)C1CCN(c2ccc(C(F)(F)F)cn2)CC1)NCc1cccc(Cl)c1,active: 33.6%
6,Cc1nc(SCC(=O)Nc2ccccc2Cl)cc(-c2ccccc2)n1,18.6%
7,COc1cccc(NC(=O)CSc2cc(C)[nH]c(=O)n2)c1,-15.5%
8,CCN(CC)c1nn2c(=O)c(C(=O)NCc3cccc(OC)c3OC)cnc2s1,-0.154%
9,COCCCNC(=O)c1sc2nc(C)c(C(=O)Nc3ccc(Cl)cc3)c(-c3ccc(Br)cc3)c2c1N,11.8%
10,Cc1cc(Br)ccc1NC(=O)CN1C(=O)c2cccnc2Sc2ccccc21,-3.27%
11,CCOc1ccc(C(=O)Nc2cc(-c3ccccc3)no2)cc1,-2.33%
12,CCN(Cc1ccccc1)C(=O)c1cc2ccc3cccnc3c2[nH]1,-15.5%
13,COc1ccccc1C(=O)N1CCC(N2CCN(c3ccccc3)CC2)CC1,active: 68.8%
14,Cc1ccc2oc3c(c(=O)c2c1)C(c1cccc(O)c1)N(CCCN1CCOCC1)C3=O (configuration not stated),2.72%
15,CCOc1ccc(CCNC(=O)c2ccc(C)c(-n3c(C)nc4cccnc43)c2)cc1OCC,-1.05%
16,Cc1cccc(-c2nnc(SCC(=O)NC3CCCCC3)o2)c1,21%
17,O=C1CN(C(=O)c2ccc(S(=O)(=O)N3CCCC3)cc2)C(c2ccc(F)cc2)c2cc(F)ccc2N1 (configuration not stated),-21.7%
18,CCc1ccc(NS(=O)(=O)c2ccc3[nH]cc(C(=O)N4CCCCCC4)c(=O)c3c2)cc1,-3.9%
19,CCN(c1ccccc1)S(=O)(=O)c1nnc(NC(=O)C(C)Oc2ccccc2)s1 (configuration not stated),1.94%
20,COc1ccc(N(C(=O)c2ccc(C)cc2)S(=O)(=O)c2ccc(Cl)cc2)cc1,7.16%
21,CCOC(=O)Cc1ccc(NC(=O)N2CCC(CN3CCC(C)CC3)CC2)cc1,2.23%
22,O=C(Nc1ccc(S(=O)(=O)Nc2ncccn2)cc1)c1cccnc1,active: 42.3%
23,COc1cc(C2C(C(=O)Nc3ccc(C)cc3C)=C(C)Nc3nc(SCc4ccccc4)nn32)cc(OC)c1OC (configuration not stated),6.57%
24,O=c1cc2oc3cc(O)c(O)cc3c(-c3ccccc3[N+](=O)[O-])c-2cc1O,active: 31.4%
25,CCOc1ccc(N(CC(=O)Nc2ccc3c(c2)OCO3)S(=O)(=O)c2ccccc2)cc1,-0.946%

row,SMILES,inhibition
1,CC(C)Sc1ncc(Cl)c(C(=O)Nc2c(C(=O)Nc3ccccc3)oc3ccccc23)n1,-5.36%
2,O=C1c2oc3ccccc3c(=O)c2C(c2cccc(O)c2)N1Cc1ccc(F)cc1 (configuration not stated),-3.38%
3,O=C(c1cc(-c2ccc(Cl)cc2)on1)N(Cc1ccc(F)cc1)Cc1ccco1,-9.03%
4,Cc1nn(C)c2c1c(-c1ccccc1)cc(=O)n2Cc1c(F)cccc1Cl,-2.21%
5,Cc1ccccc1Nc1c(-c2ccccc2O)nc2sccn12,-11.7%
6,CCOc1cccc(CC(=O)N2CCc3c([nH]c4ccccc34)C2c2ccc(OC)cc2)c1OCC (configuration not stated),-0.545%
7,COc1ccc(Cn2c(C(=O)O)c(CNCCc3cccs3)c3ccc(OC)cc32)cc1,-14.4%
8,Cc1oc2ncn(C)c(=O)c2c1C(=O)N1CCN(c2ccc(Cl)cc2)CC1,-11.8%
9,COc1ccc(-c2c(C)nn3c(C(F)(F)F)cc(C)nc23)cc1OC,11.4%
10,COc1cccc(CNCCCSc2nnnn2C)c1,-13.1%
11,Cc1ccccc1CN1C(=O)c2ccccc2S(=O)c2ccc(C(=O)NCc3ccccc3)cc21 (configuration not stated),16.2%
12,COc1ccc(CCNC(=O)CCc2c(C)nc3c(-c4ccc(F)cc4)c(C)nn3c2C)cc1OC,5.88%
13,Cc1ccc(-n2c(SCc3nc(-c4ccc(Cl)cc4)no3)nnc2-c2ccncc2)cc1,-5.71%
14,COc1ccc(S(N)(=O)=O)cc1C(=O)NCCCN1CCN(c2ccc(C)cc2)CC1,active: 48.6%
15,CCc1ccc(NC(=O)CN(c2ccc(C)cc2)S(=O)(=O)c2c(C)nn(C)c2C)cc1,-5.08%
16,COc1ccc(C(=O)NCC(c2cccnc2)N2CCN(c3ccccc3F)CC2)cc1OC (configuration not stated),7.14%
17,CCC(=O)N1CCc2cc(S(=O)(=O)CCC(=O)NCc3ccccc3Cl)ccc21,-0.722%
18,CCCc1nn2c(=O)cc(COC(=O)c3ccccc3NC(=O)C3CCCCC3)nc2s1,-4.23%
19,Cc1ccc(NC(=O)C2CCN(S(=O)(=O)c3cccs3)CC2)cc1,9.24%
20,COC(=O)c1c(C)sc(-c2c(-c3ccc(F)cc3)[nH]c3[nH]c(=O)[nH]c(=O)c23)c1O,1.32%
21,COc1ccc(NC(=O)C2=C(C)Nc3c(C(=O)Nc4ccc(C)cc4)cnn3C2c2cccc(Cl)c2)cc1 (configuration not stated),-4.01%
22,CCCCN(CC)C(=O)c1c[nH]c2ccc(S(=O)(=O)Nc3cccc(OC)c3)cc2c1=O,-15.8%
23,CN(Cc1ccccc1)C(=C(Cl)Cl)C(=C1NCCN1)[N+](=O)[O-],active: 33.6%
24,COc1ccc(NC(=O)CC2Nc3cccc4cccc(c34)NC2=O)cc1 (configuration not stated),11.6%
25,Cn1nnnc1SCC(=O)N1CCCc2ccccc21,active: 40.6%

row,SMILES,inhibition
1,Cc1ccc2oc(-c3cccc(NC(=O)c4cccc5c(Br)cccc45)c3)nc2c1,9.76%
2,COc1ccc(-c2cc(C)no2)cc1S(=O)(=O)N1CCN(c2ccc(C(C)=O)cc2)CC1,-3.52%
3,Cc1ccc2onc(CC(=O)N3CCN(c4ccccc4F)CC3)c2c1,-11.3%
4,Cc1oc2ccc(O)c(CN3CCOCC3)c2c1C(=O)Nc1ccc(C(C)C)cc1,1.93%
5,CC(=O)N1c2ccccc2CC1C(=O)N1CCN(c2cccc(C)c2C)CC1 (configuration not stated),-15.8%
6,Clc1ccccc1CSc1nncn2c1cc1occc12,9.79%
7,O=C(CCCn1c(=O)c2cccn2c2ccccc21)Nc1cccc(Cl)c1,12.9%
8,Cc1ccc(N(CC(=O)NCCSc2nc3ccccc3s2)S(=O)(=O)c2ccccc2)c(C)c1,active: 55.1%
9,CCOc1ccccc1CNC(=O)CCCn1c(=O)c2cccn2c2cccnc21,-5.53%
10,Clc1ccc(N2CCN(Cc3nnc(-c4ccc5c(c4)OCO5)o3)CC2)cc1,0.374%
11,CN(Cc1ccccc1)CC(O)COc1ccc(CNCCOc2cccnc2)cc1 (configuration not stated),active: 82.9%
12,COc1ccc(-c2cccc(NS(=O)(=O)c3cccs3)c2)nn1,-9.91%
13,CN(C)CCOC(=O)C(c1ccccc1)C1(O)CCCC1 (configuration not stated),active: 58.6%
14,CCCOc1ccc(/C=C/C(=O)Nc2sc3c(c2C(=O)OCC)CCC(C)C3)cc1OC (configuration not stated),-13.5%
15,CC(=O)c1cc(-c2ccc(F)cc2)n(CC(=O)NC2CCCCCC2)c1C,-21.5%
16,COc1ccc(NC(=O)c2ccco2)cc1NC(=O)C(C)Oc1ccc(Cl)cc1Cl (configuration not stated),23.8%
17,CCOc1ccc(CCNC(=O)CN2C(=O)c3cccnc3Oc3ccc(C)cc32)cc1OCC,23.6%
18,COc1cccc(CNS(=O)(=O)c2c(C)nc3scc(C)n3c2=O)c1,17.9%
19,O=C(Nc1cccc(C(F)(F)F)c1)c1cc2nc(-c3ccccc3)cc(C(F)(F)F)n2n1,-5.87%
20,CCCOc1ccc(-c2cccc(NS(=O)(=O)c3cccs3)c2)nn1,-4.23%
21,COc1ccc(-c2onc(C)c2C)cc1S(=O)(=O)Nc1ccc(OC(F)(F)F)cc1,-1.91%
22,CN(C(=O)COC(=O)c1cc(F)c(F)cc1Cl)c1ccccc1,active: 31.6%
